Experimental data reported in the supplement of paper PMC3334620.
In all, about 33,000 sequences were measured (“E-score (-0.5 to 0.5)”: median about -0.012, highest 2% from about 0.27 on). Some of the results follow.

biological target: T1, Vhr1 (UniProt P40522); assay: PBM E-score (8-mer binding enrichment) (E-score (-0.5 to 0.5)); higher = stronger / more preferred TF binding; most listed sequences are background and not binding sites; conditions: protein concentration: 200 nM; construct: GST-full length
T1 sequence: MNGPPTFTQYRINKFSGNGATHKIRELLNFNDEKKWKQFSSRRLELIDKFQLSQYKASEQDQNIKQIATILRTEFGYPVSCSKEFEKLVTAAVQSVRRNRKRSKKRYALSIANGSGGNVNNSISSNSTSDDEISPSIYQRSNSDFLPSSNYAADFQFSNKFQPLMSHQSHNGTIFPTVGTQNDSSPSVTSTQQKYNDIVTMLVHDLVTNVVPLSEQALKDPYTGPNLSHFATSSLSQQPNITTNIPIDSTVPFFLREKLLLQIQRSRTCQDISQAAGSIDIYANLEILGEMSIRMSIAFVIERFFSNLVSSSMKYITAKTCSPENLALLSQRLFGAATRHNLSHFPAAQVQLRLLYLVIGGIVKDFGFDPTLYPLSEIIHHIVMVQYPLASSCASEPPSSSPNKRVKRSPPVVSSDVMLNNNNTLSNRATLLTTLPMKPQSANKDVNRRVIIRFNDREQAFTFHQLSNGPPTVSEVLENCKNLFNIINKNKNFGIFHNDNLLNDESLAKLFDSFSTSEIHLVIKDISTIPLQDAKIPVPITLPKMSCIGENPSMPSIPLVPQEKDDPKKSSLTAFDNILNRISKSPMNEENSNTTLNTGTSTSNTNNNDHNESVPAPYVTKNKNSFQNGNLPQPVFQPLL
In short: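 For each ungapped eight-base word taken together with its reverse complement, the Universal PBM Analysis Suite assigned an E-score. Binding data came from GST-tagged yeast transcription factors, applied at about 100-200 nM, on universal all-10-mer Agilent arrays made double-stranded by primer extension. Fluorescent anti-GST marked bound protein, and scans were normalised with masliner.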

Sequence | PBM E-score
AGGCTAAA | -0.177
GTCTATGA | 0.107
CCGGCAAG | 0.00828
AAATATTG | 0.126
AATGATTA | 0.304
AAGGATCC | -0.135
GGCGACAC | 0.0915
CGTCTCGA | 0.129
GACATTCC | -0.181
AGGCGCTA | -0.00809
CCGCCCAC | 0.121
CACTCATG | 0.217
CTTGCACC | -0.00031
ACGCACAG | 0.04
CAAAACAA | -0.13
ATTCTGGA | -0.0665
CGAGGAAC | 0.0034
AGAAATGC | 0.0132
ACTATTAA | 0.0552
AAGCAGCA | -0.166
ATTAGTCA | 0.381
AATATCGG | -0.0669
GTTGCCAA | -0.145
CGGTCTGA | 0.143
AATCGCAG | 0.0939

Sequence | PBM E-score
CGTGTACC | 0.0634
CACATACG | -0.0445
CAGTTGGC | -0.14
ACGCGATA | -0.181
GGCCATTA | -0.0228
ATTGGATG | 0.0194
AGGTCTTC | -0.185
GATCTTTA | 0.00452
GACCACCA | 0.116
AATGGAGT | -0.016
ACCTAGCT | -0.0595
ATGTCCTG | 0.0271
AAAATCAT | 0.151
TCAGACAA | 0.00803
CAGATAAA | -0.067
GGGCGATA | -0.0965
GTGCCCCA | 0.0263
AATTTCTA | -0.201
AAACCCGG | -0.0675
ACCCGAAG | 0.00449
CACTTTCC | -0.198
GCGTTAGC | -0.263
AACAATCA | 0.222
ATGAATTC | 0.103
AAACCCAA | -0.0052

Sequence | PBM E-score
CAATCACA | 0.211
ATCATAGG | 0.141
TGTGTAAA | 0.0958
ACCGTAGT | 0.0221
GACGTTAA | -0.0139
TCAACTAA | -0.0555
ACGATAGG | -0.102
AGAGTAAC | 0.0343
GTCTGGCA | -0.105
AACTTAGG | -0.101
GAGACGAC | -0.0698
CAAATTAC | -0.153
CTTAGGAA | -0.105
TGTTCAAA | 0.00608
AGGTGTCA | 0.168
GGGTGCGA | 0.0172
CCATACAA | 0.0171
AAAAATCA | 0.0601
GTTCAGGA | -0.0515
CCGAAAAA | 0.0254
ACGGGAAT | -0.146
CTATTGTC | -0.00994
ACCAAGTA | 0.103
TCCTCTCA | -0.138
GATGGAAA | -0.166

Sequence | PBM E-score
GTTGTGAA | 0.0148
CCGGATAA | -0.0159
GGGTTCAA | -0.126
ATTTTTCG | -0.0311
CTCTCCCA | -0.105
GTTGGAGA | -0.0272
ACGGCAGG | -0.0337
ATTTACTA | 0.0404
GTATATGA | 0.225
GGCCTACA | -0.0767
CCGTACAG | -0.131
AAAATCGC | -0.102
CGGGGAAC | -0.00162
CCAAACTC | 0.186
AACGCTCG | 0.0129
GATGGGGC | -0.214
ACCCGCGC | 0.342
CGACCTAC | -0.00114
ATACCGTA | 0.0215
GGGTCTAA | 0.0208
GTCGGGTA | 0.12
CTTAGATA | -0.0809
ATGGCCAT | -0.153
AATCGCCT | 0.248
CTGTTCGC | 0.0266

Sequence | PBM E-score
GTTACTAA | 0.0333
GCCCACCC | 0.284
CTGGGGTA | -0.157
ATGCTAAT | -0.0227
CATTAAAA | 0.0893
CGTGATGA | 0.0242
GAGCTTAC | -0.0921
GGAGGCCC | -0.283
CGCCGGGC | 0.213
AAGTCGCT | 0.0823
CGGCTCAA | 0.0103
TCACCTCA | 0.0985
TATTGTAA | -0.0846
GGATTCAC | 0.0757
ATTGGCTG | -0.0538
AGGCCTCC | -0.0772
GCTAACCA | 0.0612
AGCCCTAG | -0.096
CTGACCAC | -0.0676
GCCAAGAC | -0.0123
ATTCGCCA | 0.156
CTTCGAGC | -0.153
AAAATCTC | -0.043
ATCTATAA | -0.137
AAAGCATA | -0.0696

Sequence | PBM E-score
GGGCTCCA | -0.158
CATATTCC | -0.171
CAGGTACA | 0.0667
CCACCCAG | 0.115
CCGCCAAA | 0.0122
AACTACAC | 0.0739
TACACAAA | 0.0773
GCTCTTAA | -0.0965
GGGGTAGA | 0.0361
CCTGTGAA | -0.0995
GATAGTCA | 0.357
GTATGGAA | -0.0887
AATAGCTA | -0.116
GCGGATAA | 0.169
AACTCAGT | 0.00455
GACCAAAA | 0.0585
CCCGGGGC | -0.0124
ATGTACAC | 0.113
GAACCATC | 0.212
CACGCGGA | 0.215
CCCTGACG | -0.0114
ACGTTCGA | -0.176
AAAATGTA | 0.00485
ATGACCAG | 0.0367
AGATGAAC | -0.0339

Sequence | PBM E-score
CTTGATTA | 0.0605
CTATATCA | 0.064
GGTGGACA | -0.0244
AAATTCGG | -0.0086
ATAGAGTG | 0.0554
GCTAGAGA | -0.235
AAAATAGG | -0.0375
CCGGCGCC | 0.112
GAGATGAA | 0.00829
GAAAGACC | -0.127
CGACTCTC | 0.278
ACGGTTCG | -0.0569
TAGGGAAA | -0.0504
CTGTGTAA | 0.134
AATCATAT | 0.296
CAGGATAC | -0.0962
CTTTCATA | -0.00958
AAGCCTCC | -0.172
GTGACAAC | 0.119
CCCAGGGG | 0.00897
ACAAGACT | 0.0436
GGTAGCCA | 0.0707
AGAGCAGG | 0.0243
TATCGAGA | 0.0713
CCCGCTCC | -0.19

Sequence | PBM E-score
CAGGCACG | 0.184
AGATTGGC | -0.0581
AAGGCCGC | -0.175
CGGGGTTA | -0.047
GGTTGCGA | 0.167
AAGTTGCG | -0.188
AATGTTGC | -0.0613
ATAGCAAT | 0.0575
CGAAGGCC | -0.278
AGAGCGGG | 0.0355
AGGGCCCA | -0.175
ACCCATCA | 0.261
AACTGGCT | -0.204
GTCCCCTA | -0.213
CATACGAA | 0.182
CTTCCCGC | 0.0761
AGTGAACT | -0.0748
AATAAATC | -0.116
CCTAATCC | -0.116
AAAAGGCG | -0.0625
GATAAGGC | -0.0808
GAGTTGAA | -0.122
CGCACGCG | 0.00561
GAATGGGC | 0.068
ACTAAAGG | -0.136

Sequence | PBM E-score
ATTCACAA | 0.14
CCCCTTCC | -0.235
ATCGGTGG | 0.00571
ATCCGATG | 0.221
CAGAGCAC | 0.143
GGGGGCAC | -0.127
GATCTGGC | -0.194
CAAAAGAC | -0.162
ACTATATG | 0.0345
TTAGTGAA | 0.102
AGAATCGG | -0.0586
CAAGGCCC | -0.18
GAGGATGC | -0.0556
GATGCCCA | -0.115
TACCAGGA | 0.0535
AACCTCAG | -0.103
AAGCAAGG | -0.11
ATGTAGCA | 0.00252
TAAAGTCA | 0.26
